The whole screen tested about 420,000 compounds, of which about 64,000 (15%) were called active. This list was built around the results that the source calls inconclusive (neither active nor inactive); the mix of calls is not that of the screen. Calls come from the whole dose curve; as a rule, active = well fitted inhibition curve with a large enough effect; inconclusive = small, poorly fitted or top-dose-only effect; inactive = flat fitted curve, though single readings scatter. Potencies of inconclusive entries are left out as doubtful fits.
Assay: qHTS for Inhibitors of human tyrosyl-DNA phosphodiesterase 1 (TDP1): qHTS in cells in absence of CPT; note: nearly all actives have a fitted effect of over 55% in size
Details: DT40 Tdp1-/- hTDP1 cells, no CPT, ATP luminescence, 48 h; activity change, negative = growth inhibition: at 46.2 µM (top of the series) unless noted
In short: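 Chicken DT40 Tdp1-/- cells stably complemented with human TDP1 were seeded at 400 cells/well with DMSO in place of 20 nM camptothecin. After compound pinning, cells grew at least 48 hr at 37 °C; viability read by CellTiter-Glo luminescence.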
% is set by controls: 0 for no effect and ±100 for the full control effect; potency is the fitted concentration of half-maximal effect; tags give direction and shape of the fitted curve.

Question: Which Potency does the source give for `CC(=O)N(C)c1ccc(NC(=S)Nc2cccc3ccccc23)cc1` here?
Answer: inconclusive [inhibitor, single point]

Question: For `C=CCOC(=O)C1=C[C@H](c2cn(C(C)=O)c3ccccc23)C[C@H](OCc2ccc(CO)cc2)O1`, which Potency is on record?
Answer: active: 20.6 µM

Question: For `CCCCNS(=O)(=O)c1ccc2nc(SCC(N)=O)[nH]c2c1`, which activity change, negative = growth inhibition is on record?
Answer: inconclusive: -29.1% [inhibitor]

Question: With `CCCOc1ccc(C(=O)NCC(c2cccs2)N(C)C)cc1OC` (stereo not drawn) as the compound, how does the Potency read?
Answer: inactive

Question: With `Cc1ccccc1NC1=C(Cl)C(=O)OC1OC(=O)c1ccco1` (stereo not drawn) as the compound, how does the Potency read?
Answer: active: 23.1 µM

Question: Which Potency does the source give for `Cc1nc(N)[nH]c(=O)c1CCCNc1ccc(CCCCC2(CCl)OCCO2)cc1` here?
Answer: inconclusive [inhibitor, single point]

Question: With `CCOC(=O)N1CCN(S(=O)(=O)c2ccc(OCC)c(C)c2)CC1` as the compound, how does the Potency read?
Answer: active: 9.2 µM

Question: Which Potency does the source give for `COC(=O)[C@@]1(Cc2ccc(F)cc2)[C@H]2c3cc(C(=O)N4CCCC4)n(Cc4ccc(C)c(F)c4F)c3C[C@H]2CN1C(=O)c1ccccc1` here?
Answer: active: 23.1 µM

Question: For `CCc1cccc(NC(=O)c2ccc3c(c2)c(C)c(C)n3Cc2ccc(F)cc2)c1`, which Potency is on record?
Answer: inconclusive [inhibitor, single point]

Question: For `COCCn1c(=O)cnc2cnc(Nc3ccccc3)nc21`, which Potency is on record?
Answer: active: 14.6 µM

Question: For `O=C(Cn1c(C(=O)N2CCc3ccccc3C2)cc2sccc21)c1ccccc1`, which Potency is on record?
Answer: inconclusive [inhibitor, single point]

Question: For `Cc1ccccc1NC(=O)COc1ccc(S(=O)(=O)N2CCCC2)cc1C`, which Potency is on record?
Answer: inactive

Question: With `c1cncc(-c2nc(NCCCN3CCOCC3)c3c4c(sc3n2)CCC4)c1` as the compound, how does the Potency read?
Answer: active: 23.1 µM

Question: Which Potency does the source give for `Cc1ccc(CNC(=O)CN2N=C(c3ccccc3)CCC2=O)cc1` here?
Answer: inactive

Question: With `CC(C)COC(=O)N1CCCCC1c1cc(C(=O)NCc2ccccc2)no1` (stereo not drawn) as the compound, how does the Potency read?
Answer: inconclusive [inhibitor, single point]

Question: With `Cn1c(C(=O)Nc2ccc(OC(F)(F)F)cc2)cc2c(=O)n3ccccc3nc21` as the compound, how does the Potency read?
Answer: inconclusive [inhibitor, partial curve]

Question: Which Potency does the source give for `COc1ccccc1N1CCN(C(=O)CSc2ccc3c(C)cc(C)nc3n2)CC1` here?
Answer: inconclusive [inhibitor, single point]

Question: With `Cc1ccccc1OCC(=O)OCc1cc(=O)n2nc(-c3cccs3)sc2n1` as the compound, how does the Potency read?
Answer: inconclusive [inhibitor, partial curve, poor fit]

Question: With `Cc1cccc(NC(=O)CSc2nnc(CSc3nc(C)cc(C)n3)o2)c1` as the compound, how does the Potency read?
Answer: inactive

Question: Which Potency does the source give for `NCCCNCCCCNC(=O)C(O)NC(=O)CCCCCCN=C(N)N` (stereo not drawn) here?
Answer: active: 1.19 µM

Question: With `O=C(Nc1cc(Cl)cc(Cl)c1)c1ccc(F)c(S(=O)(=O)N2CCN(c3ccccc3F)CC2)c1` as the compound, how does the Potency read?
Answer: active: 7.31 µM

Question: For `Cn1c(=N)c(S(=O)(=O)c2ccccc2)cc2c(=O)n3ccccc3nc21`, which Potency is on record?
Answer: inactive

Question: With `Cc1cc(NC(=O)C2CCCN(S(=O)(=O)c3cccc4nsnc34)C2)ccc1Br` (stereo not drawn) as the compound, how does the Potency read?
Answer: inconclusive [inhibitor, partial curve, poor fit]

Question: For `CC(=O)c1ccc(N2CCN(C(=O)C(=O)c3cn(CC(=O)N4CCOCC4)c4ccccc34)CC2)cc1`, which Potency is on record?
Answer: inconclusive [inhibitor, single point]

Question: Which Potency does the source give for `Cc1cc(C)cc(C(=O)NCCn2cc(SCC(=O)N3CCOCC3)c3ccccc32)c1` here?
Answer: inconclusive [inhibitor, single point]

Question: With `COc1cc(/C=C/C(=O)OCC(=O)NC(=O)NC(C)(C)C)cc(OC)c1OC` as the compound, how does the Potency read?
Answer: inconclusive [inhibitor, single point]

Question: Which Potency does the source give for `CCCC(=O)Nc1nn(CC)c2nc3ccc(C)cc3cc12` here?
Answer: inconclusive [inhibitor, partial curve]

Question: Which Potency does the source give for `COc1cccc(Nc2nc(-c3sc(NC(=O)CC(C)C)nc3C)cs2)c1` here?
Answer: active: 23.1 µM

Question: Which Potency does the source give for `Cc1ccc(C(C)NC(=O)c2ccc3c(c2)OCCO3)cc1C` (stereo not drawn) here?
Answer: inconclusive [inhibitor, single point]

Question: With `CSc1nc2nc3c(c(=O)n2[nH]1)CN(Cc1ccccc1)CC3` as the compound, how does the Potency read?
Answer: inconclusive [inhibitor, single point]

Question: For `Cc1cccc(CSc2nnc3[nH]c(=O)cc(-c4ccccc4)n23)c1`, which Potency is on record?
Answer: inactive

Question: Which Potency does the source give for `COc1ccc(CCN2CCCC(CN(C)Cc3cc(Cl)c(O)c(OC)c3)C2)cc1` (stereo not drawn) here?
Answer: inconclusive [inhibitor, single point]

Question: Which Potency does the source give for `Cn1cccc1C(=O)Nc1nc(-c2ccccn2)cs1` here?
Answer: active: 4.11 µM

Question: With `O=C(c1ccc2c(c1)N(Cc1ccc(Cl)cc1)C(=O)c1ccccc1S2(=O)=O)N1CCN(c2ccccn2)CC1` as the compound, how does the Potency read?
Answer: active: 23.1 µM

Question: With `O=C(N/N=C/c1ccccc1)C(=O)N/N=C/c1ccccc1` as the compound, how does the Potency read?
Answer: inactive

Question: For `O=C(CNc1ccc(Br)cc1)c1ccccc1`, which Potency is on record?
Answer: inactive

Question: Which Potency does the source give for `COC(=O)c1sccc1-c1ccc(C(=O)Nc2ccccc2)o1` here?
Answer: inconclusive [inhibitor, single point]

Question: For `CSCCC(NC(=O)OCc1ccccc1)C(=O)NCc1cccnc1` (stereo not drawn), which Potency is on record?
Answer: inactive

Question: For `Cc1nc(N2CCC(C)CC2)c2c(C)c(C(=O)Nc3ccc(C(F)(F)F)cc3)sc2n1`, which Potency is on record?
Answer: inconclusive [inhibitor, single point]

Question: For `COc1ccc(CCNC(=O)C(=O)NCC2OCCN2S(=O)(=O)c2ccc(C)cc2)cc1OC` (stereo not drawn), which Potency is on record?
Answer: inconclusive [inhibitor, single point]

Question: With `COc1ccc(NC(=O)c2cc(-c3cc(F)ccc3OC(C)C)n[nH]2)c(C)c1` as the compound, how does the Potency read?
Answer: active: 16.4 µM

Question: For `Cc1ccc(CN2COc3c(Cl)cc4c(-c5ccccc5)cc(=O)oc4c3C2)cc1`, which Potency is on record?
Answer: inactive

Question: For `CCOC(=O)c1ccccc1NC(=O)CSc1nc2ccccc2c(=O)n1CCCN1CCOCC1`, which Potency is on record?
Answer: inconclusive [inhibitor, single point]

Question: With `Cc1ccc(NC(=O)COc2ccc3oc4c(c3c2)CCCC4)cc1C` as the compound, how does the Potency read?
Answer: inactive

Question: For `O=C(NCc1ccco1)/C(=C/c1ccc(Br)cc1)NC(=O)c1ccco1`, which Potency is on record?
Answer: inactive

Question: Which Potency does the source give for `Nc1ccccc1NC(=O)c1ccccc1` here?
Answer: active: 18.4 µM

Question: With `CCc1ncc(C(O)c2ccc(Cl)cc2)n1Cc1ccccc1` (stereo not drawn) as the compound, how does the Potency read?
Answer: active: 11.6 µM

Question: With `Cc1ccc(NC(=O)C(=O)NCC2(c3ccccc3)CCCC2)cc1C` as the compound, how does the Potency read?
Answer: inactive

Question: With `CCCC(=O)N(C)c1ccc(/C=C2\C=Cc3ccccc32)cc1` as the compound, how does the Potency read?
Answer: active: 2.24 µM

Question: For `CSC1=N/C(=C\c2cccc(Cl)c2)C(=O)N1N(C)C`, which Potency is on record?
Answer: active: 20.6 µM

Question: Which Potency does the source give for `C/C=C/c1ccc(OCCOc2ccc(C=O)cc2)c(OC)c1` here?
Answer: inconclusive [inhibitor, single point]

Question: For `CC(C)=C1SC(N2CCN(c3cccc(Cl)c3)CC2)=NC1=O`, which Potency is on record?
Answer: inconclusive [inhibitor, single point]

Question: With `Cc1cc([N+](=O)[O-])ccc1NC(=O)/C=C/c1cccs1` as the compound, how does the Potency read?
Answer: inconclusive [inhibitor, partial curve]

Question: With `N#Cc1ccc(C23OCCN2CCn2nc4ccccc4c23)cc1` (stereo not drawn) as the compound, how does the Potency read?
Answer: inconclusive [inhibitor, single point]

Question: For `CCc1nc2c(OCCOC)cccn2c1N(C)C(=O)c1ccco1`, which Potency is on record?
Answer: inactive

Question: For `COc1ccc(CN(C)C[C@@H]2OCCCC[C@@H](C)Oc3ccc(N(C)C)cc3C(=O)N([C@H](C)CO)C[C@@H]2C)cc1`, which Potency is on record?
Answer: inconclusive [inhibitor, single point]

Question: For `CC(C)CNc1ncnc2c1ncn2[C@H]1CN(Cc2ccncc2)C[C@@H](CO)O1`, which Potency is on record?
Answer: inconclusive [inhibitor, single point]

Question: Which Potency does the source give for `COC(=O)C1CCN(c2csc3ccc(Cl)cc3c2=O)CC1` here?
Answer: inactive

Question: Which Potency does the source give for `COc1cccc(-c2cncnc2NCc2cnc(C)cn2)c1` here?
Answer: active: 3.66 µM

Question: For `COc1ccccc1N1CCN(C(=O)c2cc(C)oc2C)CC1`, which Potency is on record?
Answer: inconclusive [inhibitor, partial curve]

Question: With `N#Cc1c(NC(=S)NC(=O)C2CCCC2)sc2c1CCCCC2` as the compound, how does the Potency read?
Answer: inconclusive [inhibitor, single point]

Question: For `Cc1ccc(NS(=O)(=O)c2cccc(C(=O)N3CCN(C(=O)c4ccco4)CC3)c2)cc1`, which Potency is on record?
Answer: inconclusive [inhibitor, single point]

Question: Which Potency does the source give for `CC(O)c1c(OCc2ccccc2)ncnc1OCc1ccccc1` (stereo not drawn) here?
Answer: inconclusive [inhibitor, single point]

Question: With `CCOc1nc(C#N)nc(N2CCOCC2)n1` as the compound, how does the Potency read?
Answer: active: 11.2 µM

Question: Which Potency does the source give for `Cc1ccc(S(=O)(=O)N2CCN(c3nc(CN4CCCC4)nc4sc(C)c(C)c34)CC2)cc1` here?
Answer: inconclusive [inhibitor, single point]

Question: Which Potency does the source give for `CCCCn1ccnc1C(=O)c1cc(S(=O)(=O)N2CCOCC2)ccc1C` here?
Answer: active: 10.3 µM

Question: For `CCOc1cc(-c2noc(CCC(=O)NC3CCCCC3)n2)ccc1OC`, which Potency is on record?
Answer: inconclusive [inhibitor, single point]

Question: For `COc1ccc(C(=O)c2ccccc2)c(O)c1O`, which Potency is on record?
Answer: inconclusive [inhibitor, single point]

Question: For `COc1ccccc1COC(=O)CN1C(=O)NC2(CCCCC2C)C1=O` (stereo not drawn), which Potency is on record?
Answer: inactive

Question: Which Potency does the source give for `CCCOc1ccc(CNC(=O)CN2C(=O)c3cccnc3Oc3ccc(C)cc32)cc1` here?
Answer: inconclusive [inhibitor, single point]

Question: For `COc1ccc(-c2nc(CS(=O)(=O)CC(=O)Nc3cccc(C(C)=O)c3)c(C)o2)cc1`, which Potency is on record?
Answer: inactive

Question: For `COCC(=O)Nc1cc(C(=O)N2CCC(c3ccccc3)CC2)cc2nc(-c3ccccc3)n(C)c12`, which Potency is on record?
Answer: inconclusive [inhibitor, single point]

Question: Which Potency does the source give for `COc1ccc(CNC(=O)CN(C(=O)c2csnn2)c2ccccc2F)cc1` here?
Answer: inactive
